{"source": "PubChem BioAssay AID485294", "about": "(National Center for Advancing Translational Sciences (NCATS), 2010)", "note": "Out of some 370,000 compounds screened, about 150 (0.041%) were called active. This list was built around the results that the source calls inconclusive (neither active nor inactive); the mix of calls is not that of the screen. Calls follow the shape of the dose curve; as a rule, active = well fitted inhibition curve with a large enough effect; inconclusive = small, poorly fitted or top-dose-only effect; inactive = flat fitted curve, though single readings scatter. Potencies of inconclusive entries are left out as doubtful fits. Potency is read from the fitted curve at half-maximal effect; tags tell the direction and shape of the fitted curve.", "data": [{"target": "Beta-lactamase (Escherichia coli (strain K12)) (UniProt P00811)", "sequence (P00811 whole entry, looked up)": "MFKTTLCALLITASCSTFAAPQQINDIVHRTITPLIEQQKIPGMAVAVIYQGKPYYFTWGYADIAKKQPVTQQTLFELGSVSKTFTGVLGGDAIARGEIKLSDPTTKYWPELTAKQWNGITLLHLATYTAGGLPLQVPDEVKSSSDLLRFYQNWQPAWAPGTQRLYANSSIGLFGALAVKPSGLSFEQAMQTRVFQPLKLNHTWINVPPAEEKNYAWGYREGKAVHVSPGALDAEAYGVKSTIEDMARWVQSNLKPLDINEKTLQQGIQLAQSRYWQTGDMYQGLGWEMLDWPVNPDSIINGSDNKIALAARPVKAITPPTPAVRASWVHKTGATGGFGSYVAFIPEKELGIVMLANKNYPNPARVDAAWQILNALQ", "assay": "qHTS Inhibitors of AmpC Beta-Lactamase (assay with detergent); also: nearly all actives have a fitted effect of over 25% in size", "conditions": "AmpC hydrolysis of nitrocefin, absorbance 480 nm, 0.01% Triton; series mostly up to 114 µM", "in_short": "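20 mM phosphate pH 7.0 + 0.01% (detergent screen) or 0.0001% Triton X-100; 5.3 nM AmpC reagent; cpd preinc 15 min RT; nitrocefin (800 uM stock) to start; A480 q20 s × 4 min; Activity was normalised to no-enzyme and no-compound control wells.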", "values": [{"smiles": "CCNC(=O)COC(=O)CCC(=O)c1cccs1", "Potency": "inconclusive [inhibitor, full curve]"}, {"smiles": "COC(=O)CSc1ncnc2c1sc1nc(-c3ccco3)c3c(c12)CC(C)(C)OC3", "Potency": "inconclusive [inhibitor, partial curve]"}, {"smiles": "C=C(C)CNC(=S)Nc1cccc(N)n1", "Potency": "inactive"}, {"smiles": "CC(=O)OC1c2ccccc2C(=O)N1c1ccccc1C", "note": "(centres undefined)", "Potency": "inactive"}, {"smiles": "COc1ccc(CCNC(=O)C2CCN(C(=O)c3ccc(Br)cc3)CC2)cc1", "Potency": "inactive"}, {"smiles": "S=c1sc(SCCOc2ccccc2)nn1-c1ccccc1", "Potency": "inconclusive [inhibitor, single point]"}, {"smiles": "Cn1nc(-c2ccccc2)cc1NC(=O)Nc1ccccc1F", "Potency": "inactive"}, {"smiles": "COc1ccc(C)c2sc(NC(=O)c3ccc(S(=O)(=O)N4CCCCC4)cc3)nc12", "Potency": "inactive"}, {"smiles": "O=C1NC(=O)/C(=C\\c2ccccc2OCc2cccc([N+](=O)[O-])c2)N1", "Potency": "inconclusive [inhibitor, full curve, poor fit]"}, {"smiles": "O=[N+]([O-])c1ccccc1/C=N/N1CCN(c2ccc(Cl)cc2)CC1", "Potency": "inconclusive [inhibitor, full curve]"}, {"smiles": "Cc1cc(C)cc(Nc2ncnc3c2nc2n3CCCC2)c1", "Potency": "inactive"}, {"smiles": "Cc1cc(NC(=O)CCC(=O)N(CC(=O)NC2CCCC2)c2ccc(F)c(Cl)c2)no1", "Potency": "inactive"}, {"smiles": "CC(C)COC(=O)C1C2C=CC3(CN(C(C)c4ccc(Br)cc4)C(=O)C13)O2", "note": "(centres undefined)", "Potency": "inconclusive [inhibitor, full curve, poor fit]"}, {"smiles": "COc1cccc(NC(=O)CN(C)C(=O)C(CCSC)NC(=O)c2ccco2)c1", "note": "(centres undefined)", "Potency": "inconclusive [inhibitor, partial curve]"}, {"smiles": "COc1ccc(CCc2nnc(CCC(=O)NCc3cc(C(C)C)no3)o2)cc1", "Potency": "inactive"}, {"smiles": "CCOC(=O)c1ccc(NC(=O)CSc2nc3c(c(=O)n2CC)SC(C)C3)cc1", "note": "(centres undefined)", "Potency": "inconclusive [inhibitor, full curve]"}, {"smiles": "Cc1ccc(S(=O)(=O)NCCc2ccc(S(N)(=O)=O)cc2)cc1", "Potency": "inconclusive [inhibitor, single point]"}, {"smiles": "CCCN(CC1CC1)C(=O)COC(=O)c1ccc(CNS(=O)(=O)c2ccc(F)c(Cl)c2)cc1", "Potency": "inconclusive [inhibitor, full curve]"}, {"smiles": "CC(=O)Nc1ccc(NC(=O)COc2cccc3c2OC(C)(C)C3)cc1", "Potency": "inactive"}, {"smiles": "Cc1cc(=O)[nH]c(SCC(=O)Nc2ccccc2C#N)c1C#N", "Potency": "inconclusive [inhibitor, single point]"}, {"smiles": "COc1ccc(C2CC3CC(c4ccccc4)N2O3)cc1", "note": "(centres undefined)", "Potency": "inconclusive [inhibitor, partial curve, poor fit]"}, {"smiles": "C(=N\\n1cnnc1)/c1cccnc1", "Potency": "inconclusive [inhibitor, full curve, poor fit]"}, {"smiles": "CC(=O)c1cccc(OCc2cc(C(=O)N(C)CCC3CCOCC3)no2)c1", "Potency": "inconclusive [inhibitor, partial curve]"}, {"smiles": "O=C(COc1ccc(/C=C\\[N+](=O)[O-])cc1)N1CCOCC1", "Potency": "inconclusive [inhibitor, full curve, poor fit]"}, {"smiles": "CN(C)c1cccc(C(=O)NCC2CCCO2)c1", "note": "(centres undefined)", "Potency": "inconclusive [inhibitor, full curve, poor fit]"}, {"smiles": "CC(C)n1nc(C(=O)OCn2nnc3ccccc3c2=O)c2ccccc2c1=O", "Potency": "inconclusive [inhibitor, full curve, poor fit]"}, {"smiles": "COC(=O)[C@@]12CCCN1[C@H](c1ccc(-c3ccc(OC)cc3)cc1)[C@@H]1C(=O)N(C)C(=O)[C@@H]12", "Potency": "inconclusive [inhibitor, single point]"}, {"smiles": "CC1CCCN(C(=O)CCS(=O)(=O)c2ccc3c(c2)NC(=O)C(C)S3)C1", "note": "(centres undefined)", "Potency": "inconclusive [inhibitor, single point]"}, {"smiles": "Cc1ccc(OC(=S)Nc2ccc(O)cc2)cc1", "Potency": "inconclusive [inhibitor, partial curve, poor fit]"}, {"smiles": "O=C(NCCc1ccc(F)cc1)c1ccc2c(=O)n3c(nc2c1)CCC3", "Potency": "inconclusive [inhibitor, full curve, poor fit]"}, {"smiles": "COc1ccc(/C=N/NC(=O)c2ccccc2OC)cc1COc1ccc(C)cc1", "Potency": "inconclusive [inhibitor, full curve, poor fit]"}, {"smiles": "COCc1[nH]nc2c1C(c1ccc(F)cc1F)C(C#N)=C(N)O2", "note": "(centres undefined)", "Potency": "inconclusive [inhibitor, partial curve]"}, {"smiles": "COc1ccc(-c2noc(Cn3cc(S(=O)(=O)N4CCCC4)ccc3=O)n2)cc1", "Potency": "inconclusive [inhibitor, full curve, poor fit]"}, {"smiles": "NC(=S)N/N=C/c1ccc([N+](=O)[O-])cc1", "Potency": "inconclusive [inhibitor, partial curve, poor fit]"}, {"smiles": "CCC1(c2ccccc2)NC(=O)N(CC(=O)Nc2ccc(S(=O)(=O)NC3=NCCCCC3)cc2)C1=O", "note": "(centres undefined)", "Potency": "inactive"}, {"smiles": "CCOc1ccc(NC(=O)c2cc3sc(Cl)cc3n2CC)cc1", "Potency": "inactive"}, {"smiles": "Cc1ccc(/C=N/NC(=O)c2nnn(-c3nonc3N)c2CSc2ccc(Cl)cc2)cc1", "Potency": "inconclusive [inhibitor, single point]"}, {"smiles": "COc1cc(OC)c(OC)cc1CNC(=O)c1ccc(S(=O)(=O)N2CCCCC2)cc1", "Potency": "inconclusive [inhibitor, full curve]"}, {"smiles": "Cc1cc(C(=O)OCC(=O)NNC(=O)c2cccs2)ccc1[N+](=O)[O-]", "Potency": "inactive"}, {"smiles": "O=C(COc1ccccc1Cl)N1CCc2ccccc21", "Potency": "inactive"}, {"smiles": "O=C(c1c2c(nc3ccccc13)C(=O)N(C1CCCCC1)C2)N1CCN(c2ccc(F)cc2)CC1", "Potency": "inactive"}, {"smiles": "CC(=O)c1c(C)[nH]c(C(=O)OCC(=O)N2CCN(S(=O)(=O)c3ccc(C)cc3)CC2)c1C", "Potency": "inconclusive [inhibitor, full curve]"}, {"smiles": "CN(CC(=O)N1CC=C(c2ccccc2)CC1)S(=O)(=O)c1ccc2c(c1)c(=O)n(C)c(=O)n2C", "Potency": "inconclusive [inhibitor, full curve, poor fit]"}, {"smiles": "COc1ccc(CCNC(=O)C(=O)NCC2OCCN2S(=O)(=O)c2ccccc2)cc1OC", "note": "(centres undefined)", "Potency": "inactive"}, {"smiles": "Cc1nnc(NC(=O)C(c2ccccc2)c2ccccc2)s1", "Potency": "inconclusive [inhibitor, full curve, poor fit]"}, {"smiles": "O=C(CCN1CCN(c2ccc(Cl)cc2)CC1)Nc1ccccc1F", "Potency": "inconclusive [inhibitor, partial curve]"}, {"smiles": "COc1ccc(/C=C/C2=NC(=C\\N(C)C)/C(=O)O2)cc1", "Potency": "inactive"}, {"smiles": "Cc1ccc(S(=O)(=O)NCC(=O)NCC(=O)NCCc2ccccc2F)cc1C", "Potency": "inconclusive [inhibitor, partial curve]"}, {"smiles": "CCOC(=O)C1CCN(S(=O)(=O)c2cc(-c3onc(C)c3C)ccc2C)CC1", "Potency": "inactive"}, {"smiles": "CC(/C=N/n1c(-c2cccnc2)n[nH]c1=S)=C\\c1ccco1", "Potency": "inactive"}, {"smiles": "C#CC[N+](C)(C)CCCCCCCCCC", "Potency": "inactive"}, {"smiles": "Cc1[nH]n(-c2ccc(Cl)c(Cl)c2)c(=O)c1CCO", "Potency": "inactive"}, {"smiles": "O=[N+]([O-])c1ccc(O)c(/C=N/n2c(-c3ccccc3)n[nH]c2=S)c1", "Potency": "inconclusive [inhibitor, partial curve]"}, {"smiles": "CCOc1ccc(CNn2nnnc2N)cc1", "Potency": "inconclusive [inhibitor, full curve, poor fit]"}, {"smiles": "C=CCn1c(=O)c(C=Nc2cccc([N+](=O)[O-])c2)c(O)n(CCCC)c1=O", "Potency": "inconclusive [inhibitor, full curve, poor fit]"}, {"smiles": "CC(C)NC(=O)CSc1nnc(-c2ccc(C(C)(C)C)cc2)n1C", "Potency": "inconclusive [inhibitor, single point]"}, {"smiles": "O=C(NCCS(=O)(=O)N1CCN(c2cccc(Cl)c2)CC1)C(c1ccccc1)c1ccccc1", "Potency": "inactive"}, {"smiles": "CCC(C)(C(=O)NC1CCCCC1)N(Cc1cccs1)C(=O)CC1NC(=O)NC1=O", "note": "(centres undefined)", "Potency": "inconclusive [inhibitor, partial curve, poor fit]"}, {"smiles": "COc1ccc(C2=NOC(Cn3nc(C(=O)NCC4CC4)cc3-c3ccccc3)C2)cc1", "note": "(centres undefined)", "Potency": "inconclusive [inhibitor, partial curve]"}, {"smiles": "CCOC(=O)C(CCCCCCC(NC(C)=O)(C(=O)OCC)C(=O)OCC)(NC(C)=O)C(=O)OCC", "Potency": "inactive"}, {"smiles": "COC(=O)Cn1nc(-c2ccc(C)c(S(=O)(=O)N(C)C)c2)c2ccccc2c1=O", "Potency": "inconclusive [inhibitor, partial curve, poor fit]"}, {"smiles": "COC(=O)Cc1[nH]c(=S)[nH]c1C(=O)OC", "Potency": "inconclusive [inhibitor, full curve, poor fit]"}, {"smiles": "C/C(=N/OCO/N=C(\\C)c1ccccc1)c1ccccc1", "Potency": "inactive"}, {"smiles": "CC1CCN(CCCCOc2ccccc2-c2ccccc2)CC1", "Potency": "inactive"}, {"smiles": "COc1ccc(S(=O)(=O)N2CCC(C(=O)N[C@H](C(=O)N3CCCCCC3)C(C)C)CC2)cc1", "Potency": "inconclusive [inhibitor, full curve, poor fit]"}, {"smiles": "CCOC(=O)c1cnc2c(OC)cccc2c1N1CCN(c2ccccn2)CC1", "Potency": "inconclusive [inhibitor, full curve, poor fit]"}, {"smiles": "Cc1c(-c2ccco2)[n+](=O)c2c(n1[O-])CCCCC2", "Potency": "inactive"}, {"smiles": "Cc1cccc(Cn2c(=O)n(-c3cc(C)cc(C)c3)c(=O)c3oc4ccccc4c32)c1", "Potency": "inactive"}, {"smiles": "Fc1cccc(CN2CCSCC2)c1", "Potency": "inconclusive [inhibitor, partial curve, poor fit]"}]}]}
